Measured values as given in the supplement of paper PMC3334620.
Whole data set: some 33,000 sequences, median “E-score (-0.5 to 0.5)” near -0.012, cut for the highest 2% near 0.29. Some of the results follow.

target: T1, Ybr033w (UniProt P38073); assay: PBM E-score (8-mer binding enrichment) (E-score (-0.5 to 0.5)); higher = stronger / more preferred TF binding; most listed sequences are background and not binding sites; details: protein concentration: 200 nM; construct: GST-full length
T1 sequence: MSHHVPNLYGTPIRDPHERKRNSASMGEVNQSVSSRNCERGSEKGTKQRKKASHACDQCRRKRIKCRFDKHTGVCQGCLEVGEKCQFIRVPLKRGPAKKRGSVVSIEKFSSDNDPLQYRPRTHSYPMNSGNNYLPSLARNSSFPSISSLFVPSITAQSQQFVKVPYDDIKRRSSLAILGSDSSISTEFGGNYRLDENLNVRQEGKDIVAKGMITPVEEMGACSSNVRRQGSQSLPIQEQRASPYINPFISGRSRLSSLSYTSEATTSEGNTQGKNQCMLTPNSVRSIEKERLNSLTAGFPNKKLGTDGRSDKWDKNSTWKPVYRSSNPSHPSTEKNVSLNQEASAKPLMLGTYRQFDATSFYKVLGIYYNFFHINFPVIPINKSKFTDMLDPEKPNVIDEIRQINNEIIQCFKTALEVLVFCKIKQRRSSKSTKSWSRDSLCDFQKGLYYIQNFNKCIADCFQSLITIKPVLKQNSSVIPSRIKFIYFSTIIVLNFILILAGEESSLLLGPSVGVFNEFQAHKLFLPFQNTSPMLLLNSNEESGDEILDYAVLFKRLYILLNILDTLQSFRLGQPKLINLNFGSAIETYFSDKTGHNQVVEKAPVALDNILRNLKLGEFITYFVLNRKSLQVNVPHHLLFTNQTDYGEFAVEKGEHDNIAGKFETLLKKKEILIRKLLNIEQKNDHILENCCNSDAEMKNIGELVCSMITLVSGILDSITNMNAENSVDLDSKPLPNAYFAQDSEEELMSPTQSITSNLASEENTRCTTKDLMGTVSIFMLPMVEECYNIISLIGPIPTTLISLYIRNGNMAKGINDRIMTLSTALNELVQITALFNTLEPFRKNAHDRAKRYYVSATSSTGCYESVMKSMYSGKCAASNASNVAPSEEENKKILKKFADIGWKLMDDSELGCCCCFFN
Description: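 Universal 'all 10-mer' protein binding microarrays (Agilent AMADID 015681) probed with GST-tagged S. cerevisiae TFs (full-length or DBD) made by in vitro transcription/translation (PURExpress), about 100-200 nM. Bound TF was detected with fluorescent anti-GST. Each ungapped 8-mer (which stands for itself and its reverse complement) is scored by the PBM enrichment score (E-score), a modified Wilcoxon-Mann-Whitney statistic from -0.5 to +0.5, computed with the Universal PBM Analysis Suite. Scale: above 0.35 generally sequence-specific binding.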

Going from CTCTTGAA to CACTGTGA, the “PBM E-score” value rises from 0.101 to 0.143.

Going from AATTAGAC to ATCCGGCA, the “PBM E-score” value falls from 0.173 to -0.129.

Compared with ATTGGTCA, AGGAGCGA is lower in “PBM E-score” value: -0.00586 for the first, -0.166 for the second.

Going from ATGACTAG to GCCCTCTA, the “PBM E-score” value falls from 0.106 to -0.176.

Going from AGCATAAT to ACGCTCAG, the “PBM E-score” value falls from 0.178 to -0.016.

Compared with GCAGGGCA, CAGTTACA is higher in “PBM E-score” value: -0.163 for the first, 0.0732 for the second.

Compared with AAAACATG, AGCTGATC is lower in “PBM E-score” value: 0.238 for the first, 0.0685 for the second.

Going from GCGATTCA to CTCTCGAC, the “PBM E-score” value rises from -0.142 to -0.0923.

First: CGGTACAG
Second: CCGATCTC
The “PBM E-score” value of the first is lower: -0.13 for the first, -0.0712 for the second.

Going from AGTGAATC to CGGTTAAG, the “PBM E-score” value falls from 0.0239 to 0.0198.

Going from AAGGACCT to GAATCCCC, the “PBM E-score” value falls from 0.0112 to -0.237.

Compared with CACATCCG, GCAAGAGC is lower in “PBM E-score” value: -0.00535 for the first, -0.0553 for the second.

Going from CGATGACG to ACTCAGTC, the “PBM E-score” value rises from -0.11 to -0.0567.

Compared with GCCAGTCA, ACATAACC is higher in “PBM E-score” value: -0.0701 for the first, 0.0469 for the second.

First: ATTTGGTC
Second: ACGCATCC
The “PBM E-score” value of the first is higher: -0.0569 for the first, -0.228 for the second.

Going from CAGCGTGG to CCTTTTGA, the “PBM E-score” value rises from -0.155 to 0.241.

Going from GCTGTTAC to CACTACCA, the “PBM E-score” value rises from -0.0989 to -0.00448.

Going from AAGTGTGC to AACCAACT, the “PBM E-score” value rises from 0.0437 to 0.212.

First: GTAGAGAC
Second: CATGGAGG
The “PBM E-score” value of the first is higher: -0.105 for the first, -0.234 for the second.

Going from GCCTGGTA to ACCACACG, the “PBM E-score” value rises from -0.0806 to -0.0206.

Compared with CTAGCGCC, GGTCTAAC is higher in “PBM E-score” value: -0.281 for the first, -0.126 for the second.

First: AGTTTCTA
Second: GCCGAGAA
The “PBM E-score” value of the first is higher: 0.0314 for the first, -0.00791 for the second.

First: CTTTCAGC
Second: AACCCCTT
The “PBM E-score” value of the first is higher: -0.0731 for the first, -0.158 for the second.

First: CGGCTATA
Second: AGTGCGCC
The “PBM E-score” value of the first is lower: -0.0713 for the first, -0.066 for the second.

Compared with TCGATTAA, CTTACCTA is lower in “PBM E-score” value: 0.288 for the first, 0.143 for the second.

Going from GACTCGAC to CAAGCACC, the “PBM E-score” value rises from -0.223 to -0.205.

First: CTCCAAAA
Second: CAACTAGA
The “PBM E-score” value of the first is higher: 0.0828 for the first, -0.0185 for the second.

Going from AAGATATC to GAGTAGGA, the “PBM E-score” value falls from 0.117 to -0.0596.

Going from CTATTTGC to CCTCGTTA, the “PBM E-score” value falls from -0.00375 to -0.00406.

First: CGCACTTC
Second: AAATTACA
The “PBM E-score” value of the first is lower: -0.128 for the first, 0.198 for the second.

First: CTTATATA
Second: GTCAAATA
The “PBM E-score” value of the first is higher: 0.334 for the first, 0.188 for the second.

First: GCGGCTTA
Second: AACTGCGC
The “PBM E-score” value of the first is higher: 0.0298 for the first, -0.116 for the second.

Going from AGGGGAAA to AATTGGCG, the “PBM E-score” value rises from 0.0237 to 0.0731.

First: CCGTGACG
Second: CAACGTCC
The “PBM E-score” value of the first is higher: -0.101 for the first, -0.157 for the second.

First: AAGATTTG
Second: GATGATGA
The “PBM E-score” value of the first is higher: 0.054 for the first, -0.00448 for the second.

Compared with GTAGCCAC, ATTACTCC is higher in “PBM E-score” value: -0.247 for the first, 0.23 for the second.

Compared with AAGATTGT, GATTAGAA is lower in “PBM E-score” value: 0.143 for the first, 0.0985 for the second.

Compared with CTATGTTA, CTTCAGAC is lower in “PBM E-score” value: 0.24 for the first, -0.0755 for the second.

Compared with CATGTACA, CCGTTTAC is higher in “PBM E-score” value: -0.0456 for the first, -0.026 for the second.

Compared with GCGTACAA, CACGGCTC is higher in “PBM E-score” value: -0.00822 for the first, 0.00122 for the second.

First: ACTATGCG
Second: ATGACCTC
The “PBM E-score” value of the first is higher: 0.0912 for the first, -0.0966 for the second.

Compared with AATGGTCT, AGCATGAA is lower in “PBM E-score” value: 0.0675 for the first, 0.0623 for the second.

Going from CTCGCATC to GGGCAAGA, the “PBM E-score” value rises from -0.0163 to 0.013.
